Results on 95 compounds are retold here after paper PMC4336329 (PLoS ONE, 2015).

Among all 310,000 compounds or so, about 2,200 (0.71%) showed an effect of 50% or more. The effect is printed as a negative number. Some of the results follow.

Sequence of human ether-à-go-go-related gene (hERG) potassium channel (Q12809 whole entry, looked up): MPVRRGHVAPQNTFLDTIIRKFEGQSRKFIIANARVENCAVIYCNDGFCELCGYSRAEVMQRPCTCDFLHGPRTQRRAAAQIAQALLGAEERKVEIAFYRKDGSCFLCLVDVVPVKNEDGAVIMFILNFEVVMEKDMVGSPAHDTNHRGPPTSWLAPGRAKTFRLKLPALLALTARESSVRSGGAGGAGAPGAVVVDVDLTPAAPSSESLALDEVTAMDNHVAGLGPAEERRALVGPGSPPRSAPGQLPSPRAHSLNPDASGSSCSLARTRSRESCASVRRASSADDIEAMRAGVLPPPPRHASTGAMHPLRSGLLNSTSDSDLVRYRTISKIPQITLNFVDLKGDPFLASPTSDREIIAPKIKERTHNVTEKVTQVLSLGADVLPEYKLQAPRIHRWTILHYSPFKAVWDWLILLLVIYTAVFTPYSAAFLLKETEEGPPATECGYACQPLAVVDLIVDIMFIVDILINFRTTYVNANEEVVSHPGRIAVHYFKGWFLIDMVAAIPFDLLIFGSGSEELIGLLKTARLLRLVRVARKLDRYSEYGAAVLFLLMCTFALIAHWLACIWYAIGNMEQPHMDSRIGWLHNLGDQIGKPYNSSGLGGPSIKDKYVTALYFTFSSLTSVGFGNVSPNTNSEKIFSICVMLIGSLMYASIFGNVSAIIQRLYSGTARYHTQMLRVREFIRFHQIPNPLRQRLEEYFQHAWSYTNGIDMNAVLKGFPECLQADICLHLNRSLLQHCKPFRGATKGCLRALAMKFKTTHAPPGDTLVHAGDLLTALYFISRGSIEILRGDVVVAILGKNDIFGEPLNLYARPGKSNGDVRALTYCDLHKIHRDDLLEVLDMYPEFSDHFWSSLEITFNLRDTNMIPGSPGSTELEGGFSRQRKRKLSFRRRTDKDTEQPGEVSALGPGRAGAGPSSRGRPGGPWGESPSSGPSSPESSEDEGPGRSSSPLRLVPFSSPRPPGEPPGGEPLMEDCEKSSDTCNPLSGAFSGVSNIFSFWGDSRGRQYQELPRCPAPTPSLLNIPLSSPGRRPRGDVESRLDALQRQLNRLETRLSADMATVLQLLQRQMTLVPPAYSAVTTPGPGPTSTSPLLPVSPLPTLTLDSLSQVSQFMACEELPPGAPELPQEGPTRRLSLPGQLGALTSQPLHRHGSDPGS

The test concerns the target human ether-à-go-go-related gene (hERG) potassium channel (human, UniProt Q12809). Briefly: primary screen, population patch clamp on CHO cells stably expressing hERG.
Consider `O=C(Nc1nnc(C(F)(F)F)s1)c1c(F)cccc1F`, for which the “hERG current change (%, negative = inhibition) at 1uM” value is on record as 13.6%.
The figure for `O=C1C2C3C=CC(CO)(O3)C2C(=O)N1c1ccccc1-c1ccccc1` (centres unmarked) is 16.9%.
Then `O=C(O)c1ccccc1CSc1ncn[nH]1`, with 3.87%; and `O=C1OCCC1Sc1nnc(-c2cccc(Br)c2)o1` (centres unmarked), with 7.56%.
The figure for `COCCSc1nnc(NC(=O)C2CCCCC2)s1` is 12.9%.
On to `Cc1ccc(S(=O)(=O)Oc2ccc(/C=C(/NC(=O)c3ccccc3)C(=O)NCCCC(=O)O)cc2)cc1`, for which the “hERG current change (%, negative = inhibition) at 1uM” value was 17.3%.
The figure for `CCOC(=O)CC1(NC(=O)C2CCC(=O)N(Cc3ccccc3F)C2)CCCCC1` (centres unmarked) is 11.5%.
The figure for `COc1ccc(C2=NOC(Cn3nc(C(=O)NCc4cccc(C(F)(F)F)c4)cc3-c3ccccc3)C2)cc1` (centres unmarked) is 13.6%.
Turning to `CCCn1ccc(O)c(Cc2ccc(Cl)cc2)c1=O`, the “hERG current change (%, negative = inhibition) at 1uM” value is 15.7%.
Then `Cc1ccc(CN2CCN(CC(=O)N/N=C/c3ccccc3F)CC2)cc1`, with -34.9%; and `C[C@@H]1CCCCCCCCCCC1=O`, with 13.3%.
Then `CC(=O)Nc1ccc(NC(=O)COC(=O)c2ccco2)cc1`, with 10.1%.
The figure for `COc1ccc(-n2c(O)c(C=Nc3ccccc3)c3ccccc3c2=O)cc1` is 16.1%.
On to `C/C(=C\C(=O)c1ccccc1)Nc1ccc(Br)c(Cl)c1`, for which the “hERG current change (%, negative = inhibition) at 1uM” value was determined as 13.7%.
`O=C(Cn1cncn1)N/N=C/c1cccc2ccccc12`: the “hERG current change (%, negative = inhibition) at 1uM” value stood at 0.867%.
Then `Cc1noc(/C=C/N(C)C)c1S(=O)(=O)N(C)CC(=O)N1CCc2ccccc21`, with 2.3%; and `CCOc1ccc(/C=N/NC(=O)C(C)Sc2ccccn2)cc1OCC` (centres unmarked), with 12%.
For the compound `COc1ccc(N2CCN(C3CCCN(Cc4cccc(C)c4)C3)CC2)cc1` (centres unmarked), the “hERG current change (%, negative = inhibition) at 1uM” value was determined as 9.53%.
Regarding `Cc1cc(/C=C\c2ccccc2)nc2ccccc12`, the “hERG current change (%, negative = inhibition) at 1uM” value is on record as 5.43%.
Then `CCOc1ccc(N2C(=O)CSC2=NC#N)cc1`, with 6.59%; and `Nc1ccc2nc(-c3ccccc3)c(-c3ccccc3)nc2c1`, with 13.1%.
As to `CSCCC(=O)NC1CCCN(CCc2ccccc2)C1` (centres unmarked), the “hERG current change (%, negative = inhibition) at 1uM” value is reported as 3.88%.
Then `O=C(O)c1cc(-c2ccc(/C=c3\sc4nc5ccc(Br)cc5n4c3=O)o2)ccc1Cl`, with 12.2%; and `Cc1cc(Br)c(NC(=O)Cn2c([N+](=O)[O-])cnc2C)cc1C`, with 8.28%.
With `C/C(=N\NC(=O)c1cccnc1)c1cccc([N+](=O)[O-])c1`, the “hERG current change (%, negative = inhibition) at 1uM” value worked out at 6.14%.
Then `O=C(COC(=O)/C=C/c1cccc(Cl)c1)Nc1ccc2[nH]c(=O)[nH]c2c1`, with 3.6%.
Then `Cc1cc(C(=O)N/N=C2\CC(=O)CC(C)(C)C2)c(C)n1-c1ccccc1`, with 14.7%; and `COc1ccc(CN2CCNC(=O)C2CC(=O)N(C)Cc2nonc2C)c(F)c1` (centres unmarked), with 2.96%.
Then `Cc1cccc(NC(=O)CN(C)S(=O)(=O)c2ccc(Cl)cc2)n1`, with 7.22%; and `CC(C)(C)C1CCC2(CC1)C(Nc1cccc(C(F)(F)F)c1)=NC(=S)N2CC#N` (centres unmarked), with 10.6%; and `CC(C)CSc1n[nH]c(=S)s1`, with 8.74%.
On to `c1ccc(Oc2cccc(CN3CCCCC3)c2)cc1`, for which the “hERG current change (%, negative = inhibition) at 1uM” value worked out at 0.0293%.
The figure for `COc1cccc2cc(C(=O)N3CCCc4ccccc43)oc12` is 3.23%; for `COC(=O)Cc1ccc(N(Cc2ccccc2F)S(=O)(=O)c2ccc(Cl)cc2)cc1` it is 6.65%; for `CCCCNS(=O)(=O)c1ccc(S(=O)(=O)N2CCC3(CC2)OCCO3)cc1` it is 9%.
The figure for `Nc1nnc(SCC(=O)NC2CCCCC2)n1-c1ccccc1` is 10.3%; for `CC(C)[C@@H](C(=O)N1CCNCC1)n1cc(CCO)nn1.Cl` it is 13.1%.
On to `COC(=O)C1=C(c2ccc3ccccc3c2)C[C@@H]2CC[C@H]1N2C(=O)NCC1CC1`, for which the “hERG current change (%, negative = inhibition) at 1uM” value is recorded as 1.51%.
Take `O=C(CCC(=O)c1ccccc1)NCc1ccccc1`: the “hERG current change (%, negative = inhibition) at 1uM” value is -2.28%.
`CC(=O)Oc1ccccc1C1=NN(C(=O)/C=C/c2ccccc2)C(c2ccccc2)C1` (centres unmarked): the “hERG current change (%, negative = inhibition) at 1uM” value was determined as 12.4%.
As for `Cc1nc2ccc(S(=O)(=O)NCC(=O)N3CCOCC3)cc2s1`, the “hERG current change (%, negative = inhibition) at 1uM” value is given as 5.69%.
Then `CCOc1ccc(NC(=O)NC2CC(=O)N(c3ccc(OC)cc3)C2)cc1` (centres unmarked), with 11.6%.
For `CC1CCCCN1CCNC(=O)C1CCN(S(=O)(=O)c2cccc3nsnc23)CC1` (centres unmarked), the “hERG current change (%, negative = inhibition) at 1uM” value was 12.7%.
Then `c1cnn(Cc2cnc(N3CCOCC3)s2)c1`, with 16.7%.
The figure for `O=C(N/N=C/c1ccc([N+](=O)[O-])cc1)c1cccc2cc[nH]c12` is 8.62%.
Then `CNC(=S)N1CCC(n2cnc3ccccc32)CC1`, with 11.3%; and `CC(C)(C)c1ccc(-c2cc(N)n[nH]2)cc1`, with 4.93%; and `Cc1cccn2c(=O)c(/C=C(\C#N)C(N)=O)c(Oc3ccccc3)nc12`, with 8.69%.
For the compound `CCCOc1ccc(/C=N/NC(=S)Nc2ccccc2[N+](=O)[O-])c(O)c1`, the “hERG current change (%, negative = inhibition) at 1uM” value is 15.7%.
Then `Cc1cc(C)c(C(=O)/C=C/c2cccs2)c(=O)[nH]1`, with 5.18%.
Then `COC(=O)C1=CN(C)C=C(C(=O)OC)C1c1ccc(Cl)cc1Cl`, with 9.91%; and `CN1CCN(S(=O)(=O)c2ccc3c4c(cccc24)C(=O)N3)CC1`, with -0.479%; and `O=C(Cc1ccc(Cl)cc1)Nc1ccc(Cl)cn1`, with 4.12%.
The figure for `O=C(NCc1ccccc1)c1ccc(OCC2CCCO2)cc1` (centres unmarked) is 7.33%.
In the case of `CCC1=C/C(=C/N(C)c2ccccc2)C(=O)S1`, the “hERG current change (%, negative = inhibition) at 1uM” value is -2.8%.
Then `O=S(=O)(c1ccc(-c2csc(-c3cccnc3)n2)cc1)N1CCOCC1`, with 7.21%; and `COC(=O)c1ccc(COc2ccc3c4c(c(=O)oc3c2)CCC4)o1`, with 7.49%.
The figure for `CCOC(=O)CNC(=S)N(CCCN1CCCCCC1)Cc1cccs1` is -38.1%; for `CCN(C(=O)Cn1c(=O)oc2ccccc21)c1cccc(C)c1` it is 14.3%.
As for `COc1ccc(NC(=O)COc2ccc3c(c2)OCO3)cc1`, the “hERG current change (%, negative = inhibition) at 1uM” value is given as 17.1%.
The figure for `COC(=O)[C@H](CCSC)NC(=O)Nc1ccc(C)cc1` is 9.47%; for `O=C(Nc1ccc2nc3n(c(=O)c2c1)CCCC3)c1cccc(F)c1` it is -16.4%.
Then `CCOc1ccc(-c2nnn(CC(=O)NCc3ccc4c(c3)OCO4)n2)cc1`, with -0.994%.
The figure for `O=C(O)c1cccc(S(=O)(=O)Nc2ccccc2Cl)c1` is -10.2%.
For `Cn1c(CNc2ccc(Br)cc2)nc2ccccc21`, the “hERG current change (%, negative = inhibition) at 1uM” value stood at 5.94%.
The figure for `Cc1cc(=O)[nH]c(SCC(=O)N2CCC(Cc3ccccc3)CC2)n1` is 1.08%.
The figure for `CN(C)c1ccc(C2C3CCCc4ccccc4C3=NN2C)cc1` (centres unmarked) is 7.05%; for `CCOC(=O)CC(=O)Nc1nc2ccccc2s1` it is 5.39%.
Then `C=CCn1c(O)c(C=Nc2ccccc2)sc1=S`, with 11.9%; and `CC(C)(C)C(CO)NC(=O)c1ccc[nH]1` (centres unmarked), with 10.3%.
For `Cc1cc(C(=O)NCc2ccc(S(N)(=O)=O)cc2)c(C)o1`, the “hERG current change (%, negative = inhibition) at 1uM” value is on record as 5%.
The figure for `COC(=O)c1ccc(-c2noc(CN(Cc3ccncc3)CC3CCCO3)n2)cc1` (centres unmarked) is -8.53%; for `O=C(CSc1ccc(-c2ccncc2)nn1)N1CCCCC1` it is 1.39%.
The figure for `CC1CN(C(=O)CN2C(=O)c3ccccc3C2=O)CC(C)O1` (centres unmarked) is 14.8%; for `Cc1ccc(C(=O)c2ccc(O)cc2)cc1C` it is 6.98%.
The figure for `CNC(=O)c1[nH]cnc1C(=O)Nc1cccc(C)c1` is -6.37%; for `CCN(CC)S(=O)(=O)c1ccc2oc(C(=O)N3CCOCC3)c(C)c2c1` it is -6.98%.
On to `Clc1cccc(NCc2nnc(SCc3ccccc3)o2)c1`, for which the “hERG current change (%, negative = inhibition) at 1uM” value is listed as 4.55%.
For the compound `COc1ccccc1NC(=O)Cc1nnc(SCC(=O)c2ccc(F)cc2)n1C`, the “hERG current change (%, negative = inhibition) at 1uM” value worked out at 7.25%.
The figure for `N#C/C(=C\c1ccc(O)cc1)C(=O)NCc1ccccc1` is 11.2%; for `Clc1cccc(Cl)c1C[n+]1cccc2ccccc21.[Br-]` it is -6.58%; for `CCSc1nc(O)cc(=O)n1-c1ccc(OC)cc1` it is 9.36%.
Then `COc1ccc(CNc2ncc(-c3ccccc3)n2C)cc1`, with 12.8%; and `COc1cc(/C=N/n2c(C)nnc2C)cc(OC)c1OC`, with 5.83%.
The figure for `O=C1CCN(CCc2ccccc2)CCN1[C@H](CO)c1ccccc1` is -7.26%.
Regarding `O=C(c1ccccc1Cl)N1CCN(Cc2ccc3c(c2)OCO3)CC1`, the “hERG current change (%, negative = inhibition) at 1uM” value is given as -2.01%.
Take `COCCNC(=O)c1ccc2c(c1)S(=O)(=O)c1cc(Cl)ccc1C2=O`: the “hERG current change (%, negative = inhibition) at 1uM” value was found to be 10.6%.
As for `O=C(COC(=O)c1ccc(Br)o1)NCC1CCCO1` (centres unmarked), the “hERG current change (%, negative = inhibition) at 1uM” value was 2.18%.
Consider `Fc1ccc(OCCCCCn2ccnc2)cc1`, for which the “hERG current change (%, negative = inhibition) at 1uM” value came out at 5.69%.
The figure for `Cc1sc2ncn3ncnc3c2c1C` is 18%; for `Cn1c(SCc2c(F)cccc2Cl)nc2c(c1=O)SCC2` it is 13.7%; for `O=C1CCC(c2ccc(-n3ccnc3)cc2)=NN1` it is 9.44%.
Regarding `COc1cc([N+](=O)[O-])ccc1NC(=O)C[n+]1ccccc1.[Cl-]`, the “hERG current change (%, negative = inhibition) at 1uM” value was determined as 5.94%.
The figure for `Cc1nc2ccc(S(=O)(=O)NCC(=O)NCCc3ccc(Cl)cc3)cc2s1` is 27.5%; for `O=C1C(c2ccc(F)cc2)N(Cc2ccc3c(c2)OCO3)C(=O)CN1C1CCCCC1` (centres unmarked) it is 3.53%.
